Experimental data taken from PubChem BioAssay AID463173 (ICCB-Longwood Screening Facility, Harvard Medical School, 2010).
The whole screen tested about 52,000 compounds, of which about 4,300 (8.3%) were called active. Rule as the data show it: active = survival mostly below about 52% (no sharp cut-off); inactive = mostly above about 56%. The list shows a part of the results.

test system: DeltatarO mutant; assay: S. aureus survival, RN4220 and DeltatarO strains – OD600, teichoic acid synthesis inhibitors, primary screen (AID 463173); conditions: S. aureus RN4220 wild type/DeltatarO growth, OD600, 18 h, active compounds read low, screened at 18.75 µg/mL (by protocol)

| Compound | survival |
| --- | --- |
| CCOc1cc(C(=O)Nc2cccc(-c3nc4ccccc4o3)c2)cc(OCC)c1OCC | inactive: 51% |
| Cc1ccc(S(=O)(=O)c2cnc(SCC(=O)Nc3ccc4c(c3)OCCO4)[nH]c2=O)cc1 | inactive: 92% |
| CN(C1CCCCC1)S(=O)(=O)c1ccc2c(c1)c(=O)c(C(=O)NCCc1ccc(Cl)cc1)cn2C | inactive: 69% |
| Cc1ccc(-c2nnc(Nc3cccc(Cl)c3)c3ccccc23)cc1S(=O)(=O)NCC1CCCO1 (stereo unspecified) | inactive: 110% |
| CCS(=O)(=O)N1CCC(C(=O)NCCC(C)C)CC1 | inactive: 87% |
| CSCCC(NS(=O)(=O)c1ccc2c(c1)oc(=O)n2C)C(=O)NCCc1ccc(C)cc1 (stereo unspecified) | inactive: 78% |
| Cc1cccc(CN2C(=O)c3ccccc3Sc3ccc(C(=O)N4CCCC4)cc32)c1 | inactive: 83% |
| O=C(Nc1cc(Cl)cc(Cl)c1)c1ccc(F)c(S(=O)(=O)NC2CCCC2)c1 | inactive: 95% |
| O=C(CN1CCCCCCC1)Nc1ccc2c(c1)OCO2 | inactive: 87% |
| COC(=O)c1c(-c2cccs2)csc1NC(=O)c1ccc(Cl)cc1 | inactive: 69% |
| COCCN1C(=O)c2[nH]nc(-c3ccccc3O)c2C1c1ccc(OCc2ccccc2)c(OC)c1 (stereo unspecified) | active: 13% |
| COc1ccc2c(c1)c1c(c(=O)n(-c3ccccc3C)c(=O)n1CC(=O)NCc1ccc(C)cc1)n2C | inactive: 75% |
| Cc1cccc(OCc2ccc(-c3nc(C#N)c(NCCN(C)C)o3)o2)c1 | inactive: 104% |
| Cc1ccc(S(=O)(=O)c2cnc(SCC(=O)Nc3cc(C)cc(C)c3)nc2N)cc1 | inactive: 102% |
| O=C(NCCNCc1ccccc1)c1ccco1 | inactive: 104% |
| CCCCc1ccc(-n2nc3cc(C)c(NC(=O)Cc4ccccc4)cc3n2)cc1 | inactive: 140% |
| COC(=O)c1ccccc1NC(=O)Cn1cc(S(=O)(=O)Cc2ccccc2F)c2ccccc21 | inactive: 94% |
| CCOC(=O)c1c(C)oc2nc(C)nc(NCc3ccccc3Cl)c12 | inactive: 92% |
| CCN(CC)c1ccc(NC(=O)CSc2nnc(C)c(=O)[nH]2)cc1 | inactive: 85% |

| Compound | survival |
| --- | --- |
| CCCN(CCC)C(=O)CSc1nnc2cc(C)c3cc(C)cc(C)c3n12 | inactive: 80% |
| COc1ccccc1Nc1nn2c(=O)c3ccc(C(=O)NCc4cccs4)cc3nc2s1 | inactive: 75% |
| COc1ccc(-c2cn3c(n2)sc2cc(C(=O)NCc4ccccc4OC)ccc23)cc1 | inactive: 63% |
| COC(=O)c1cc(S(=O)(=O)NCC2CCN(Cc3cc(C)ccc3C)CC2)c[nH]1 | inactive: 81% |
| COc1ccc(N2CCN(C(=O)c3ccc(C)c(NC(=O)c4nsc5ccccc45)c3)CC2)cc1 | inactive: 72% |
| CCOC(=O)c1c(NC(=O)/C=C/c2ccccc2)sc2c1CCCC2 | inactive: 75% |
| COc1cccc(Cn2c(CNC(=O)C(C)C)nc3cccnc32)c1 | inactive: 96% |
| COCCNC(=O)C(=O)NCC(c1ccc2c(c1)OCO2)N1CCOCC1 (stereo unspecified) | active: 0% |
| Cc1ccc(C(=O)Nc2ccc(-c3nc4ccccc4s3)c(O)c2)c(C)c1 | inactive: 84% |
| O=S(=O)(c1ccc2ccccc2c1)n1nc(-c2ccco2)nc1NCc1ccc(F)cc1 | inactive: 106% |
| Cc1cc(NC(=O)CCCn2c(C)c3cnn(-c4ccccc4)c(=O)c3c2C)ccc1Br | inactive: 71% |
| Cc1cc(C)cc(C(=O)N(Cc2nc(-c3ccc(Cl)cc3)no2)C(C)C)c1 | active: 14% |
| CCOc1ccccc1NC(=O)CN1C(=O)CC(c2ccco2)Sc2ccccc21 (stereo unspecified) | inactive: 83% |
| Cc1nc(-n2nc(C)c(Cc3ccccc3Cl)c2C)sc1C(=O)N1CCCCC1C (stereo unspecified) | inactive: 74% |
| Cc1ccc(NC(=O)c2ncn(-c3ccccc3)n2)cc1Cl | inactive: 63% |
| COc1ccc(NC(=O)c2oc3ccccc3c2NC(=O)c2cc(=O)c3c(C)cc(C)cc3o2)cc1 | inactive: 69% |
| Cc1ccccc1C(C(=O)Nc1ccc(F)cc1)N(Cc1ccco1)C(=O)Cn1nnc2ccccc21 (stereo unspecified) | inactive: 107% |
| COc1ccc(-c2nc(C(=O)Nc3cccc(C(C)=O)c3)nn2-c2ccc(Cl)cc2)cc1 | inactive: 99% |
| Cc1ccc(NC(=O)CS(=O)(=O)c2nc(-c3ccc(C)cc3)cn2-c2ccc(C)cc2)cc1 | inactive: 73% |

| Compound | survival |
| --- | --- |
| CCCCN(C)CCNC(=O)c1cc(=O)[nH]c2ccc(S(=O)(=O)N3CCCCCC3)cc12 | inactive: 75% |
| Cc1ccc(CNC(=O)c2cnc(N(C)C)nc2)cc1 | inactive: 104% |
| C#CC(C)(CC)NC(=O)Cn1nnc(-c2ccc(OCc3ccccc3F)cc2)n1 (stereo unspecified) | inactive: 73% |
| COc1ccc(COC(=O)c2[nH]c3c(c2C)C(=O)CC(c2ccc(OC)c(OC)c2)C3)cc1 (stereo unspecified) | inactive: 80% |
| CC1CCCC(C)N1C(=O)Cn1c(SCC(=O)NCc2ccco2)nc2ccccc21 (stereo unspecified) | inactive: 82% |
| CCOc1ccccc1NC(=O)CC1C(=O)NCCN1C(=O)c1ccc(F)cc1 (stereo unspecified) | inactive: 91% |
| CCC(C(=O)O)C(C)CC(=O)Nc1ccccc1Cl (stereo unspecified) | inactive: 81% |
| COc1ccc(OC)c(Nc2nc3ccccc3n3c(C)nnc23)c1 | inactive: 101% |
| Cc1ccc(-n2ncc(C(=O)NC3CCCC3)c2C2CCN(C(=O)OC(C)(C)C)CC2)c(C)c1 | inactive: 70% |
| CS(=O)(=O)c1ncc(N(Cc2ccco2)Cc2ccco2)c(C(=O)Nc2ccccc2Br)n1 | inactive: 53% |
| CC1=C(C(=O)OCc2ccc(C)cc2)C(c2c(Cl)cccc2Cl)CC(=O)N1 (stereo unspecified) | inactive: 70% |
| Cc1ccc(C)c(NS(=O)(=O)c2ccc3c4c(cccc24)C(=O)N3)c1 | active: 52% |
| CNc1nc(Oc2ccc(=O)n(C)n2)nc(N2CCOCC2)n1 | inactive: 79% |
| COCCCNC(=O)c1cc2n(n1)CCCN(Cc1ccc(C)cc1)C2=O | inactive: 84% |
| Cc1cccc(-c2nc3ccccc3o2)c1 | inactive: 79% |
| COc1ccccc1-c1c(C)nn2c(N3CCN(c4cccc(Cl)c4)CC3)cc(C)nc12 | inactive: 58% |
| Cc1c(NS(=O)(=O)c2cccc(C(=O)O)c2)c(=O)n(-c2ccccc2)n1C | inactive: 67% |
| COc1ccc(OC)c(NC(=O)c2cc3c(s2)-c2ccccc2SC3)c1 | inactive: 65% |
